{"source": "PubChem BioAssay AID504332", "about": "(National Center for Advancing Translational Sciences (NCATS), 2011)", "note": "Among all 350,000 compounds or so, about 31,000 (8.9%) were called active. Inconclusive results, whose numbers are uncertain, are shown with a selection of clear calls. The call rests on the fitted dose curve; in most records, active means well fitted inhibition curve with a large enough effect; inconclusive means small, poorly fitted or top-dose-only effect; inactive means no such curve, though single readings can be large or run the other way. Potencies beside an inconclusive call are fits to weak or partial responses and may not hold up. On the % scale 0 is the no-effect control and ±100 the full control effect; potency means the concentration at half of the fitted maximal effect; tags describe the fitted curve by direction and shape."}
{"target": "Histone-lysine N-methyltransferase EHMT2 (Homo sapiens) (UniProt Q96KQ7)", "sequence (Q96KQ7 whole entry, looked up)": "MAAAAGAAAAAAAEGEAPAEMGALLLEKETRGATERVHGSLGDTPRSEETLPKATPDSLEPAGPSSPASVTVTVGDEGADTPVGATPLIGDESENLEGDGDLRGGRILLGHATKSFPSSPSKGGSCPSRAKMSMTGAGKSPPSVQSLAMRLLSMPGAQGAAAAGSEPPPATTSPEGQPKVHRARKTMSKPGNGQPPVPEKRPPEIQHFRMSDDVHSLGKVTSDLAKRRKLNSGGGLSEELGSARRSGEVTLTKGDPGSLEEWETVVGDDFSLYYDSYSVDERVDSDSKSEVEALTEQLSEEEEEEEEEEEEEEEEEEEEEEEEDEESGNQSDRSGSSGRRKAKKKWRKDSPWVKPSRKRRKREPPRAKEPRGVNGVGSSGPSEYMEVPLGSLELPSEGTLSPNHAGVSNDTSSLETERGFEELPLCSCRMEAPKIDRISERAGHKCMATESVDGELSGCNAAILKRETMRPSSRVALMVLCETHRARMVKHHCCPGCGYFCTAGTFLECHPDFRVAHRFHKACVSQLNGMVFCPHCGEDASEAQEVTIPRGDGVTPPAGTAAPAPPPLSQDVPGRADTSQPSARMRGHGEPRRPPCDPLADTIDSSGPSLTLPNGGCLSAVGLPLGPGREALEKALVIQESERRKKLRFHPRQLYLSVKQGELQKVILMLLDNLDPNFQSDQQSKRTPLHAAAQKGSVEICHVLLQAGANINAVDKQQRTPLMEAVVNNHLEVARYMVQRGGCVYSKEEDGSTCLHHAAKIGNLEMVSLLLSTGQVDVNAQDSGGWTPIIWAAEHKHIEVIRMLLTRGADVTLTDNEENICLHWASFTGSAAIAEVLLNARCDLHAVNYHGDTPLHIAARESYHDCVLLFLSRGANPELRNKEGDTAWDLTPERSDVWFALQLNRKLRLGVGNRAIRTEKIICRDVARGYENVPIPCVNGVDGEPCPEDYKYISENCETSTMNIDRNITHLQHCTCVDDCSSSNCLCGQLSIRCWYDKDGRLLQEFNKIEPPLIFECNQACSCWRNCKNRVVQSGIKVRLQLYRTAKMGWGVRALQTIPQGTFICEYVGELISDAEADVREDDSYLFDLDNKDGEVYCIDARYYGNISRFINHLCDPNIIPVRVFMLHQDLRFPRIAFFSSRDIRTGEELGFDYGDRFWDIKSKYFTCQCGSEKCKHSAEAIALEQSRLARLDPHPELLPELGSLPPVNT", "experiment": "qHTS Assay for Inhibitors of Histone Lysine Methyltransferase G9a; further: nearly all actives have a fitted effect of over 75% in size", "conditions": "G9a H3K9 monomethylation, AlphaScreen, 2 h; activity, negative = inhibition: at 59 µM (top of the series) unless noted", "procedure,_shortened": "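Readings reflect AlphaScreen signal from monomethyl-H3K9 antibody detection. HMT at 20 nM; substrate b-H3K9 500 nM; cofactor SAM 20 uM; 2 h RT reaction; compounds tested as titrations in qHTS with 15 min preincubation.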"}
{"smiles": "O=c1c(-c2c(O)cc(O)c3c(=O)cc(-c4ccc(O)cc4)oc23)c(-c2ccc(O)cc2)oc2cc(O)cc(O)c12", "activity, negative = inhibition": "inconclusive: -52.9% [inhibitor]"}
{"smiles": "CC(C)C(C(=O)C=[N+]=[N-])N1C(=O)c2ccccc2C1=O", "note": "(stereo not given)", "Potency": "inconclusive: 2.51 µM [inhibitor, partial curve]"}
{"smiles": "CCc1nnc(NC(=O)CCN2C(=O)CCC2=O)s1", "Potency": "inactive"}
{"smiles": "O=C(NC1CCCCC1)C(c1ccc(O)cc1)N(C(=O)c1cnccn1)c1cccc(F)c1", "note": "(stereo not given)", "Potency": "inactive"}
{"smiles": "Cc1ccc(-c2nnc(N3CCN(C(=O)c4cccs4)CC3)c3ccccc23)cc1", "Potency": "inconclusive: 56.2 µM [inhibitor, partial curve, poor fit]"}
{"smiles": "CC(C)N1C(=O)CCC1C(=O)N1CCCc2ccccc21", "note": "(stereo not given)", "Potency": "inconclusive: 25.1 µM [inhibitor, full curve]"}
{"smiles": "CCOC(=O)c1oc2cccc(O)c2c1C", "activity, negative = inhibition": "inactive: -40.9% [at 2.33 µM]"}
{"smiles": "Cc1cccc(-c2nc3ccccc3n3c(-c4ccccc4)c4c(=O)n(C)c(=O)n(C)c4c23)c1", "Potency": "inconclusive: 44.7 µM [inhibitor, single point]"}
{"smiles": "O=C(Nc1ccccc1)c1n[nH]c(Cn2cncn2)n1", "Potency": "inconclusive: 70.8 µM [inhibitor, single point]"}
{"smiles": "Cc1ccc(C(=O)NC2CC(C)(C)NC(C)(C)C2)cc1S(=O)(=O)N1CCCCC1", "Potency": "inactive"}
{"smiles": "CC(=O)c1ccc(S(=O)(=O)Oc2ccc(-c3ccc(C(=O)O)cc3)cc2)cc1", "Potency": "inconclusive: 50.1 µM [inhibitor, partial curve, poor fit]"}
{"smiles": "CC1CCN(C(=O)c2ccc3c(Cl)c4c(nc3c2)CCCC4)CC1", "Potency": "inactive"}
{"smiles": "OC1(c2cccnc2)CCN(Cc2nnnn2C2CCCCC2)CC1", "Potency": "inconclusive: 22.4 µM [inhibitor, single point]"}
{"smiles": "O=C(CC(=O)N1CCN(c2ccccn2)CC1)Nc1ccc2nc3n(c(=O)c2c1)CCCCC3", "Potency": "inactive"}
{"smiles": "CN(C)CCN(C(=O)C1CCN(S(=O)(=O)c2cccs2)CC1)c1nc2ccccc2s1", "Potency": "inconclusive: 63.1 µM [inhibitor, partial curve, poor fit]"}
{"smiles": "CCOc1ccc(NS(=O)(=O)c2ccc(OC)c(NC(=O)c3ccc4c(c3)OCCO4)c2)cc1", "Potency": "inconclusive: 89.1 µM [inhibitor, partial curve, poor fit]"}
{"smiles": "COCCCn1c(SCC(=O)Nc2ccc(NC(=O)c3ccco3)c(OC)c2)nc2ccccc2c1=O", "Potency": "inconclusive: 39.8 µM [inhibitor, single point]"}
{"smiles": "CC(=O)Nc1ccc(NS(=O)(=O)C(F)(F)F)cc1", "Potency": "inconclusive: 35.5 µM [inhibitor, single point]"}
{"smiles": "S=C(NC1CCCC1)N1CCOCC1", "Potency": "inactive"}
{"smiles": "Oc1c(C(c2ccco2)N2CCOCC2)sc2ncnn12", "note": "(stereo not given)", "Potency": "active: 39.8 µM"}
{"smiles": "O=C(Nc1nc(-c2ccccc2)cs1)Nc1ccc(F)cc1F", "Potency": "inactive"}
{"smiles": "OC(COc1ccc2ccccc2c1)CN1CCN(c2ccc(F)cc2)CC1", "note": "(stereo not given)", "Potency": "inconclusive: 0.794 µM [inhibitor, partial curve, poor fit]"}
{"smiles": "Cc1cc(N2CCN(S(=O)(=O)c3ccc(Cl)c(Cl)c3)CC2)c2ccccc2n1", "Potency": "inconclusive: 56.2 µM [inhibitor, partial curve, poor fit]"}
{"smiles": "O=[N+]([O-])c1cc(CN2CCN(c3ccccc3)CC2)c(O)c2ncccc12", "Potency": "inconclusive: 50.1 µM [inhibitor, partial curve, poor fit]"}
{"smiles": "CCOC(=O)N1CCN(C(=O)CSCc2nc(-c3ccccc3C)oc2C)CC1", "Potency": "inconclusive: 56.2 µM [inhibitor, partial curve, poor fit]"}
{"smiles": "O=C(NCCN1CCOCC1)c1cc([N+](=O)[O-])cc([N+](=O)[O-])c1", "activity, negative = inhibition": "inactive: 3.74% [at 0.501 µM]"}
{"smiles": "CCOC(=O)Cn1c(CN2CCN(c3cccc(Cl)c3)CC2)nc2c1c(=O)[nH]c(=O)n2C", "Potency": "inconclusive: 28.2 µM [inhibitor, single point]"}
{"smiles": "CCOc1ccc(OCCC(=O)OCC(=O)c2c(N)n(C)c(=O)n(C)c2=O)cc1", "Potency": "inconclusive: 28.2 µM [inhibitor, single point]"}
{"smiles": "O=S(=O)(c1ccc(F)cc1)N1CCN(c2nc(-c3cccnc3)nc3ccccc23)CC1", "Potency": "inconclusive: 7.08 µM [inhibitor, single point]"}
{"smiles": "O=C1CCCN1CCCNCC(O)c1ccccc1", "note": "(stereo not given)", "Potency": "inactive"}
{"smiles": "CC(C)Oc1ccc(C(=O)NC(=S)N2CCOCC2)cc1", "Potency": "inactive"}
{"smiles": "NC(=O)[C@@H]1CCCNc2c(I)cc([N+](=O)[O-])cc2C(=O)N[C@@H](CO)C(=O)NCC(=O)N1", "Potency": "active: 79.4 µM"}
{"smiles": "S=c1nc[nH]c2c1sc1nc(N3CCOCC3)c3c(c12)CCCC3", "Potency": "inactive"}
{"smiles": "O=C(Nc1ccc(C(=O)N2CCN(c3ccccc3)CC2)cc1)c1nsc2ccccc12", "Potency": "inconclusive: 28.2 µM [inhibitor, single point]"}
{"smiles": "CC(=O)Nc1ccc(NC(=O)C(C)OC(=O)c2cccc(S(=O)(=O)N3CCCCC3)c2)cc1", "note": "(stereo not given)", "Potency": "inconclusive: 25.1 µM [inhibitor, partial curve, poor fit]"}
{"smiles": "O=C(NCC(O)c1ccccc1)Nc1cccs1", "note": "(stereo not given)", "Potency": "inconclusive: 89.1 µM [inhibitor, single point]"}
{"smiles": "Cc1nc(Cl)sc1C(=O)Nc1ccc(Cl)cc1", "Potency": "inactive"}
{"smiles": "O=C(c1ccccc1)c1ccc(CN2C(=O)c3ccccc3C2=O)o1", "Potency": "inactive"}
{"smiles": "COCCCNC(=O)Nc1ccc(Br)cc1Cl", "activity, negative = inhibition": "inactive: -3.32% [at 12.7 µM]"}
{"smiles": "CN(CCc1ccccn1)C(=O)CC1C(=O)NCCN1Cc1ccccc1C(F)(F)F", "note": "(stereo not given)", "Potency": "inconclusive: 50.1 µM [inhibitor, partial curve, poor fit]"}
{"smiles": "Clc1cccc(OCCN2CCN(CCOc3cccc(Cl)c3)CC2)c1", "Potency": "inconclusive: 22.4 µM [inhibitor, single point]"}
{"smiles": "Cc1oc(-c2ccccc2F)nc1CSc1nnc(C)n2c1cc1occc12", "Potency": "inactive"}
{"smiles": "CC(C)(C)OC(=O)N1CCC(c2c(C(=O)N3CCOCC3)cnn2-c2cccc(F)c2)CC1", "Potency": "inactive"}
{"smiles": "COc1ccc(C2=NS(=O)(=O)N(C)C(C(=O)NCc3ccc4c(c3)OCO4)=C2)cc1OC", "Potency": "inconclusive: 89.1 µM [inhibitor, single point]"}
{"smiles": "CN1CCN(C(=O)/C(=C/c2ccccc2F)NC(=O)c2ccccc2)CC1", "Potency": "inconclusive: 89.1 µM [inhibitor, single point]"}
{"smiles": "O=C(CN1CCN(c2ccccn2)CC1)Nc1ccccc1", "Potency": "inconclusive: 1 µM [inhibitor, full curve, poor fit]"}
{"smiles": "CCCCNCc1cccn1-c1ccccc1", "Potency": "inconclusive: 10 µM [inhibitor, partial curve, poor fit]"}
{"smiles": "Cc1cc(C)cc(OCCNC(=O)c2cc(S(=O)(=O)N3CCOCC3)ccc2F)c1", "Potency": "inactive"}
{"smiles": "CNc1ccccc1", "activity, negative = inhibition": "inactive: 9.3% [at 0.501 µM]"}
{"smiles": "COc1cc(-c2noc(C)c2-c2ccc3[nH]ccc3c2)cc(OC)c1OC", "Potency": "inconclusive: 89.1 µM [inhibitor, single point]"}
{"smiles": "COc1ccc2[nH]c(O)c(N=NC(=O)Cc3cccs3)c2c1", "Potency": "inactive"}
{"smiles": "C#CCOCCOCCOCCNc1nc(N2CCN(C(=O)C(Cc3ccc(O)cc3)n3cc(C(N)CC(C)C)nn3)CC2)nc(N2CCN(C(=O)C(Cc3cc4ccccc4[nH]3)n3cc(C(N)C(C)CC)nn3)CC2)n1", "note": "(stereo not given)", "activity, negative = inhibition": "inconclusive: -85.1% [inhibitor]"}
{"smiles": "O=C(CC1C(=O)NCCN1Cc1cccc(Oc2ccccc2)c1)NCc1cccnc1", "note": "(stereo not given)", "Potency": "inconclusive: 56.2 µM [inhibitor, partial curve, poor fit]"}
{"smiles": "CCOC(=O)c1c(C)oc2c1c(C(c1cccnc1)N1CCCCC1)c(O)c1ccccc12", "note": "(stereo not given)", "Potency": "inconclusive: 6.31 µM [inhibitor, single point]"}
{"smiles": "CCn1ccnc1C(O)c1cccc(OC)c1", "note": "(stereo not given)", "Potency": "inconclusive: 89.1 µM [inhibitor, single point]"}
{"smiles": "CCOc1ccc(CCNC(=O)c2cc3sc(CC)cc3n2C)cc1OCC", "Potency": "inactive"}
{"smiles": "CCOC(=O)CCc1c(C)nc(SCCCn2c(=O)[nH]c3ccccc32)c(C#N)c1C", "Potency": "inconclusive: 3.98 µM [inhibitor, single point]"}
{"smiles": "CC1=C/C(=C/N(C)c2ccccc2)C(=O)S1", "Potency": "inconclusive: 4.47 µM [inhibitor, single point]"}
{"smiles": "O=C1C2C(C(=O)N1CCN1CCN(Cc3ccc([N+](=O)[O-])cc3)CC1)[C@H]1C=C[C@@H]2C1", "note": "(stereo not given in full)", "Potency": "inactive"}
{"smiles": "COC(=O)c1c(C(=O)OC)c(-c2ccc(Br)cc2)n2c1CS(=O)C2", "note": "(stereo not given)", "activity, negative = inhibition": "inactive: 4.64% [at 2.33 µM]"}
{"smiles": "CCN(CC)S(=O)(=O)c1cc(NC(=O)c2ccc(-n3cncn3)c([N+](=O)[O-])c2)ccc1C", "Potency": "inconclusive: 89.1 µM [inhibitor, single point]"}
{"smiles": "O=C(CSc1ccc(-c2ccco2)nn1)Nc1ccccc1F", "Potency": "active: 39.8 µM"}
{"smiles": "CCN(c1ccccc1)S(=O)(=O)c1ccc(N)c(OC)c1", "Potency": "inconclusive: 25.1 µM [inhibitor, single point]"}
{"smiles": "CC(O)(CS(=O)(=O)Cc1ccccc1)c1ccc(Cl)cc1", "note": "(stereo not given)", "Potency": "inactive"}
{"smiles": "COc1cccc(NC(=O)CCP(C)(=O)O)c1", "Potency": "inactive"}
{"smiles": "Cc1ccc(NC(=O)COC(=O)c2ccc3c(c2)NC(=O)C2CCCN32)cc1", "note": "(stereo not given)", "activity, negative = inhibition": "inconclusive: -85.2% [inhibitor]"}
{"smiles": "COc1ccc2[nH]c3c(N4CC(C)OC(C)C4)ncnc3c2c1", "note": "(stereo not given)", "Potency": "inactive"}
{"smiles": "CC(=O)c1sc(-c2ccccn2)nc1C", "Potency": "active: 35.5 µM"}
{"smiles": "Cc1ccc(C2C(C#N)=C(N)Oc3nc(-c4ccccc4)[nH]c32)o1", "note": "(stereo not given)", "Potency": "active: 50.1 µM"}
{"smiles": "CCOCCCNCC(=O)NC1(C)C2CCC(C2)C1(C)C", "note": "(stereo not given)", "Potency": "inconclusive: 31.6 µM [inhibitor, single point]"}
